Test results from PubChem BioAssay AID504706 (National Center for Advancing Translational Sciences (NCATS), 2011).
About 200 (0.062%) of roughly 320,000 compounds were called active. Inconclusive means that the source gave no clear call. Such entries were picked first, then a sample of the others. The call rests on the fitted dose curve; in most records, active means well fitted activation curve with a large enough effect; inconclusive means small, poorly fitted or top-dose-only effect; inactive means no such curve, though single readings can be large or run the other way. No potency is given beside an inconclusive call; the fits are too rough.

Assay: qHTS assay for re-activators of p53 using a Luc reporter; further: nearly all actives have a fitted effect of over 45% in size; on activity change, positive = activation: % of control where 0% means no effect
Settings: H1299 p53-A138V BP100-luciferase reporter, luminescence, 24 h; series mostly up to 92.2 µM; activity change, positive = activation: at the top concentration
Summary of the method: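 H1299 (p53-null), stable ts p53-A138V + BP100-Luc; 1000 cells/well, Opti-MEM/10% FBS; cpd 4 pt, 1:5; 24 h, 37 deg C, 5% CO2; detection reagent 10 min RT; luminescence.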
Potency means the concentration at half of the fitted maximal effect; tags describe the fitted curve by direction and shape.

| SMILES | Potency | activity change, positive = activation |
| --- | --- | --- |
| O=C(Nc1ccc(Cl)cc1)Nc1ccccc1C(=O)NCc1ccco1 | inconclusive [activator, single point] |  |
| Cc1nn(C)c(C)c1/C=C/C(=O)c1ccccc1 | inconclusive [activator, partial curve] |  |
| Fc1cc(Br)ccc1Nc1nc2ccccc2n2nnnc12 | inconclusive [activator, partial curve, poor fit] |  |
| O=C1c2ccccc2C(=O)N1CCN1CCc2ccccc21 | inconclusive [activator, partial curve, poor fit] |  |
| Cc1ccc(CNC(=O)CNC(=O)c2ccc(Br)o2)cc1 | inconclusive [activator, single point] |  |
| CC(C)CSC1=NSC2=NC(=O)/C(=C\c3coc4ccccc4c3=O)C(=N)N12 | inconclusive [activator, partial curve, poor fit] |  |
| COc1cc(CN2CCC(Cc3ccccc3)CC2)cc(OC)c1OC | inconclusive [activator, single point] |  |
| Cc1cccc(NC(=S)N2CCCCCC2)c1 |  | inactive: 2.84% |
| Cc1ccc(C(=O)OCC(=O)c2ccc(CC(=O)N3CCOCC3)s2)cc1C |  | inactive: 25.1% |
| Cc1ccc(NC(=O)c2ccc3snnc3c2)cc1C | inconclusive [activator, partial curve, poor fit] |  |
| COCCNC(=O)c1ccc2c(Cl)c3c(nc2c1)CCC3 |  | inactive: 16.9% |
| O=C(NCCCc1ccccc1)c1cc(COc2c(F)cccc2F)on1 | inconclusive [activator, partial curve, poor fit] |  |
| Cc1nc(S/C(=C\c2ccc(-c3ccc(C(=O)O)c(Cl)c3)o2)C(=O)O)n[nH]1 |  | inactive: -2.49% |
| O=C(O)C1C2CCC(O2)C1C(=O)Nc1ccc(OC(F)F)cc1 (configuration not stated) | inconclusive [activator, partial curve, poor fit] |  |
| Cc1ccc(S/C=C\C(=O)c2ccccc2)cc1 | inconclusive [activator, partial curve, poor fit] |  |
| CCS(=O)(=O)n1nc(-c2ccc(Cl)cc2)nc1N | inconclusive [activator, partial curve] |  |
| O=C(O)c1cc(-c2ccc(-c3ccc(F)cc3)o2)nc2ccccc12 | inconclusive [activator, full curve, poor fit] |  |
| Cc1ccccc1NC(=S)NC(C)C(c1ccccc1)N1CCN(C)CC1 (configuration not stated) |  | inactive: 8.03% |
| CC(C)c1ccc(OC(=O)NCCO)cc1 | inconclusive [activator, partial curve, poor fit] |  |
| COc1cccc(NC(=S)N(Cc2ccccn2)Cc2ccccc2Cl)c1 |  | inactive: -0.3% |
| COc1ccc(CN2CSC(=S)N(Cc3ccc(OC)cc3)C2)cc1 |  | inactive: 6.33% |
| Cc1ccc(NC(=O)c2ccc3nsnc3c2)c(Cl)c1 | inconclusive [activator, partial curve, poor fit] |  |
| O=C(CNC(=O)c1ccc(Cl)cc1)NNc1c(F)c(F)cc(F)c1F |  | inactive: -4.7% |
| O=C(Cn1ccn(-c2ccc(F)c(Cl)c2)c(=O)c1=O)NCCc1ccccc1 | inconclusive [activator, single point] |  |

| SMILES | Potency | activity change, positive = activation |
| --- | --- | --- |
| CCc1ccc(CC2S/C(=C(\C#N)C(C)=O)NC2=O)cc1 (configuration not stated) | inconclusive [activator, partial curve, poor fit] |  |
| O=c1oc(Nc2ccccc2F)nc2ccccc12 | inconclusive [activator, partial curve, poor fit] |  |
| Cc1ccc(Nc2cc(C)nc(-c3ccccc3)n2)cc1 | inconclusive [activator, full curve, poor fit] |  |
| Cc1ccc([N+](=O)[O-])c(OCc2ncc(Cl)n2C)c1 | inconclusive [activator, single point] |  |
| CC1CCC(NC(=O)c2ccc(S(C)(=O)=O)cc2)CC1 (configuration not stated) | inconclusive [activator, partial curve, poor fit] |  |
| CCOC(=O)c1cc2ccc(OC)c(OC)c2c(=O)s1 | inconclusive [activator, full curve] |  |
| CCSc1nncn1/N=C/c1ccc(OC)c(OC)c1 | inconclusive [activator, partial curve, poor fit] |  |
| O=C(/C=C/Nc1ccccc1C(=O)O)c1cccs1 | inconclusive [activator, full curve, poor fit] |  |
| CCOC(=O)N1CCC(n2c(=S)[nH]c3ccccc3c2=O)CC1 |  | inactive: -1.1% |
| Cc1cc(NCc2ccccn2)ccc1Br |  | inactive: 13.9% |
| Cc1ccc(-c2cc(-c3ccccc3)no2)c(O)c1 | inconclusive [activator, partial curve, poor fit] |  |
| CCOC(=O)Cc1csc(NC(=O)NC2(C(F)(F)F)Oc3ccccc3O2)n1 | inconclusive [activator, single point] |  |
| Cc1ccc(NC(=O)C2COc3ccccc3O2)cc1S(=O)(=O)N1CCCCC1 (configuration not stated) | inconclusive [activator, single point] |  |
| Cc1ccc(S(=O)(=O)N(C)C)cc1NC(=O)CSc1nc2ccccc2[nH]1 |  | inactive: -5.23% |
| Cc1ccc(CCC(=O)Nc2ccccc2C(=O)O)o1 | inconclusive [activator, full curve, poor fit] |  |
| Cc1nn(C(=O)c2ccoc2C)c(N)c1-c1ccccc1 | inconclusive [activator, partial curve, poor fit] |  |
| O=C1COc2ccc(C(=O)CCl)cc2N1 |  | inactive: 15.7% |
| O=c1c2c(nc3cc(-c4ccccc4)[nH]n13)CCC2 | inconclusive [activator, partial curve, poor fit] |  |
| CNC(=S)N/N=C/c1c(Cl)cccc1Cl |  | inactive: 4.81% |
| Cc1ccc(CNC(=O)C2CCCCC2C(=O)O)cc1 (configuration not stated) |  | inactive: 5.58% |
| Fc1ccccc1CNCCC(Cc1ccccc1)c1ccc2c(c1)OCO2 (configuration not stated) |  | inactive: 2.15% |
| COc1cccc2c(=O)c(C(=O)O)c[nH]c12 |  | inactive: -4.44% |
| CC(C(=O)Nc1cc([N+](=O)[O-])ccc1Cl)N1CCN(c2ccccc2O)CC1 (configuration not stated) | inconclusive [activator, full curve, poor fit] |  |
